Results published in PubChem BioAssay (NCI).
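Grown in 96-well plates, cells were treated for 48 hours with each compound at five concentrations. Insufficient inhibition: endpoint recorded as highest concentration tested. GI50 = concentration required for 50% inhibition of growth. TGI is the concentration that stops growth completely.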

Tested on: NCI-H322M lung
Assay: NCI tumour cell line growth inhibition, 48 h

Row | SMILES | GI50 | TGI
1 | O=C(NCCCCC(c1ccc(F)cc1)c1ccc(F)cc1)NCCCc1cccnc1 | 13.9 µM | 29.8 µM
2 | O=C1Nc2ccc(F)cc2/C1=C/c1cccc(OCc2ccccc2)c1 | 14.6 µM | 35.4 µM
